Data as given in the antibiotic and cytotoxicity screens of Wong et al. (2023).
The list shows a part of the results.

What follows are compounds tested on HSkMC (human skeletal muscle cells) (assay: cytotoxicity call (relative viability < 0.9)). Conditions: 10 µM.
With `C[C@@H]1CN([C@@H](C)CO)C(=O)c2cc(C#CC3(O)CCCC3)cnc2O[C@H]1CN(C)C(=O)Cc1ccncc1` the cytotoxicity call was “inactive”. `C[C@H](O)C#Cc1ccc2c(c1)O[C@@H](CN(C)C(=O)Nc1ccccc1)[C@H](C)CN([C@H](C)CO)S2(=O)=O` was tested, and the cytotoxicity call was “inactive”. With `COc1ccc(S(=O)(=O)N(C)C[C@@H]2Oc3ccc(NC(=O)C4CC4)cc3CC(=O)N([C@H](C)CO)C[C@@H]2C)cc1` the cytotoxicity call was “inactive”. For `COc1ccc(NC(=O)N(C)C[C@H]2Oc3ccc(NC(=O)Cn4cnnn4)cc3CC(=O)N([C@@H](C)CO)C[C@H]2C)cc1`, the cytotoxicity call was “inactive”. `C[C@H](CO)N1C[C@H](C)[C@@H](CN(C)S(=O)(=O)c2cccs2)Oc2c(NS(C)(=O)=O)cccc2C1=O` was tested, and the cytotoxicity call was “inactive”. For `CC(=O)N(C)C[C@@H]1Oc2ncc(C#C[C@H](C)O)cc2C(=O)N([C@H](C)CO)C[C@@H]1C`, the cytotoxicity call was “inactive”. `COc1ccc(CN(C)C[C@H]2OCCCC[C@H](C)Oc3ccc(NC(=O)c4ccccc4)cc3C(=O)N([C@H](C)CO)C[C@H]2C)cc1` was tested, and the cytotoxicity call was “inactive”. With `C[C@@H]1CN([C@@H](C)CO)S(=O)(=O)c2ccc(-c3ccc(F)cc3)cc2O[C@@H]1CN(C)C(=O)C1CCOCC1` the cytotoxicity call was “inactive”. For `CCCN1C[C@@H](C)[C@H](OC)CN(C)C(=O)c2ccc(NS(=O)(=O)c3cn(C)cn3)cc2OC[C@@H]1C`, the cytotoxicity call was “inactive”. With `C[C@@H]1CN([C@H](C)CO)C(=O)c2cc(NC(=O)CCN3CCOCC3)ccc2O[C@H]1CN(C)Cc1ccccc1` the cytotoxicity call was “inactive”. `C[C@@H]1CN([C@H](C)CO)C(=O)c2cccc(NC(=O)Nc3ccc(C(F)(F)F)cc3)c2O[C@@H]1CN(C)S(C)(=O)=O` was tested, and the cytotoxicity call was “inactive”.
